Laboratory results taken from the supplement of paper PMC3334620.
In all, about 33,000 sequences were measured (“E-score (-0.5 to 0.5)”: median about -0.032, highest 2% from about 0.36 on). The list shows a part of the results.

target: T1, Sko1 (UniProt Q02100); test: PBM E-score (8-mer binding enrichment) (E-score (-0.5 to 0.5)); higher = stronger / more preferred TF binding; most listed sequences are background and not binding sites; conditions: protein concentration: 200 nM; construct: GST-full length
T1 sequence: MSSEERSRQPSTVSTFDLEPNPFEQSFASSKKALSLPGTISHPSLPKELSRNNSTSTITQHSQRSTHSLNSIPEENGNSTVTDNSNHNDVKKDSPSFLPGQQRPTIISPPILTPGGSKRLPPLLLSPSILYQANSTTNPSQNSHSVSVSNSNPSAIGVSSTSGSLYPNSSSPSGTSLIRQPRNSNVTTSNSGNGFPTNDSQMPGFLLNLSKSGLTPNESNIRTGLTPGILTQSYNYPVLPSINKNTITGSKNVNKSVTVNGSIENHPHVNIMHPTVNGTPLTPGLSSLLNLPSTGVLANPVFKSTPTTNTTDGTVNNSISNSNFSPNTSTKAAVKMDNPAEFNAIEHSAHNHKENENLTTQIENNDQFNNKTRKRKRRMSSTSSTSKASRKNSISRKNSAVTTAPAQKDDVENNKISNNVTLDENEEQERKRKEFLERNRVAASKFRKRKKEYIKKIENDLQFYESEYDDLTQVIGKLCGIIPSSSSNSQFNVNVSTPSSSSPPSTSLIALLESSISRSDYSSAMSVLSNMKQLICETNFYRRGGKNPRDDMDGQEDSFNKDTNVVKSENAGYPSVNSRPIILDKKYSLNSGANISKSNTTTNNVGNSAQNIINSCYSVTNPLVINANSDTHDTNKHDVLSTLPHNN
Procedure, shortened: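 Yeast transcription factors carrying a GST tag, as full-length proteins or DNA-binding domains, were produced by PURExpress in vitro transcription/translation. About 100-200 nM protein was applied to universal all-10-mer Agilent arrays, double-stranded by primer extension on fresh or once-stripped slides. Bound protein was detected with fluorescent anti-GST, and scans were normalised with masliner. The Universal PBM Analysis Suite gave each ungapped eight-base word, pooled with its reverse complement, an E-score, a modified Wilcoxon-Mann-Whitney statistic.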

Row | Sequence | PBM E-score
1 | GATTGGAC | -0.167
2 | ACGGTGAT | -0.137
3 | AGCAACAA | 0.0966
4 | CAACGCGC | 0.15
5 | AATATCTC | 0.0336
6 | ACTCATTA | 0.123
7 | ACAGAGCA | -0.0386
8 | GTCCTCGA | 0.121
9 | ATATTGCG | 0.278
10 | ATTTATGC | 0.092
11 | GACAAAAC | 0.118
12 | CTAAGGAC | -0.166
13 | TTAAGTAA | 0.154
14 | AGTGTATG | 0.0549
15 | AGGCGTCA | 0.256
16 | ACGCTTAG | 0.103
17 | AGACTACA | -0.158
18 | AATCGTCT | 0.0851
19 | CAGGTTCG | -0.123
20 | ATTCCGAG | -0.0886
21 | AAGCATTC | 0.0283
22 | CGGGGACC | -0.306
23 | CCAGCTCG | -0.129
24 | TCATACAA | 0.128
25 | ATATTCTG | 0.0884

Row | Sequence | PBM E-score
26 | CTATTGAA | 0.0932
27 | CGGAGGCC | -0.359
28 | CACTGGCA | -0.158
29 | AATACGTC | 0.464
30 | CTTACGCA | 0.427
31 | CTAAGGTA | -0.0873
32 | ATTACATC | 0.403
33 | ATTAGCGA | 0.151
34 | ACTTGTCC | -0.107
35 | AGATAAGG | -0.0819
36 | GGTAGCTA | -0.134
37 | TAGTGACA | 0.202
38 | AGGTATAT | 0.184
39 | ACAAGCCT | -0.135
40 | GTCTGCAA | 0.0812
41 | AGGGGATC | -0.259
42 | ATTGTCAG | 0.146
43 | AGCGACCC | -0.277
44 | ACTGTACC | -0.0674
45 | GAGAGACA | -0.329
46 | CGTAATCC | 0.405
47 | AGCCGCAG | -0.223
48 | GACGAATA | 0.297
49 | CGTACAGA | 0.249
50 | AAGGAATG | -0.108

Row | Sequence | PBM E-score
51 | ATCTTCAA | 0.197
52 | AATATGAG | 0.146
53 | ATCTAGCC | -0.196
54 | ACATTGAA | 0.166
55 | CAGACTCG | -0.167
56 | ACACGCTC | 0.0423
57 | GGGGCGCA | -0.146
58 | CTTGCCGA | -0.104
59 | ATAACCTA | 0.0966
60 | ATTAGCTC | 0.0776
61 | CCGCACCG | -0.0369
62 | ACCTCAGC | -0.0683
63 | AGGGCATG | -0.28
64 | AGCCTACA | -0.0669
65 | ACCGTGAA | 0.03
66 | CACTCGCC | -0.148
67 | GGGCCTGA | -0.149
68 | CCGGTACA | -0.101
69 | CAACAGCC | -0.00729
70 | CACGAAGA | 0.131
71 | ATGTCATC | 0.389
72 | ACAGGTGC | -0.221
73 | ACGGGCGA | -0.15
74 | ACGTAGTA | 0.446
75 | AGTGCCAG | -0.271

Row | Sequence | PBM E-score
76 | ACTGATGG | -0.155
77 | AGAGGGGA | -0.324
78 | GTCTCACA | 0.0584
79 | AACCGGCG | -0.0375
80 | GATTGGAA | -0.0393
81 | AAGTCATA | 0.184
82 | GATACTAA | 0.0567
83 | ACGCAAGA | 0.336
84 | GCAACCGC | -0.139
85 | ATGGAAAG | 0.179
86 | ACAGGTTG | -0.221
87 | CCGTTTCA | -0.085
88 | CAGTGTCA | 0.0363
89 | CCACGCTA | -0.137
90 | CTCTACGA | 0.0535
91 | AGCCTCCG | -0.313
92 | TACATAGA | 0.12
93 | CAGCGACA | -0.114
94 | CGCGGAAA | -0.198
95 | GAAACACA | 0.112
96 | GACCCATC | -0.17
97 | CATTTCGG | -0.134
98 | CTGCTGCA | -0.179
99 | CGCAGAAC | 0.156
100 | AGTTTGAC | 0.222

Row | Sequence | PBM E-score
101 | ATCAAGAC | 0.164
102 | ACGGATAA | 0.0434
103 | CCACTTCC | -0.0898
104 | AGTCCTGG | -0.274
105 | CGCATCTC | 0.00531
106 | AGCACTCG | -0.347
107 | AACTTTGA | 0.0725
108 | AGGAAAGA | -0.25
109 | ACCCGTCG | -0.238
110 | CAAAGATG | -0.0163
111 | TCCTCGCA | -0.147
112 | CCATCCTC | -0.282
113 | CGAGGGCG | -0.189
114 | ACACAGAC | 0.109
115 | AGGTTAAA | -0.104
116 | ATATATGG | 0.155
117 | ACCATATC | -0.0649
118 | CAGCTTGA | -0.0522
119 | AGTCTAAG | 0.104
120 | ATTCTCAA | 0.133
121 | AGTACATA | 0.00479
122 | GCAGTTCC | -0.0881
123 | ACTCAGTG | -0.263
124 | CCTCGTCA | 0.381
125 | CTAGTTGA | 0.0808

Row | Sequence | PBM E-score
126 | CCCTGTAA | -0.156
127 | AAAAAGCT | -0.00337
128 | CTCACTAC | 0.0377
129 | AATTAGAG | 0.198
130 | TATGCAAA | 0.167
131 | GGCCGACC | -0.311
132 | AACGGGCA | -0.265
133 | AGAATATA | 0.206
134 | AATGCATC | 0.0626
135 | AAATGCTA | 0.0492
136 | ACGATTCA | 0.12
137 | AGGGTAAT | -0.00961
138 | CGCTCCCC | -0.233
139 | TCCTCAAA | -0.0281
140 | AGGGACGA | 0.105
141 | CAAGTAGA | -0.167
142 | CCGGCAAC | -0.23
143 | TGCATTAA | 0.144
144 | TCTTACCA | -0.0743
145 | CTAGGAAA | -0.103
146 | GAGCTATC | -0.0596
147 | CCTTATGC | -0.0417
148 | ATGACTGG | -0.236
149 | CCGTCCCG | -0.289
150 | GCGGCGGA | -0.24

Row | Sequence | PBM E-score
151 | GAGATGGC | 0.0604
152 | GTCCAGAA | 0.08
153 | CACAGTTC | -0.0786
154 | CACTTTCG | 0.232
155 | CGTCACCC | 0.409
156 | CATAGCGA | 0.0635
157 | GTCCCTGA | -0.114
158 | AGGTGGGG | -0.0914
159 | AAAATGGC | 0.0932
160 | GAACGAAC | 0.0231
161 | AAAGTCCA | -0.146
162 | AATCCCTA | -0.0231
163 | AGGGCTAG | -0.201
164 | ACTATCCT | -0.246
165 | AGCCTGGA | -0.197
166 | AGGGTCAG | -0.284
167 | AGACAGAC | 0.192
168 | CTCAACTA | 0.0152
169 | GTAGACTA | -0.0529
170 | ATATAGAA | 0.128
171 | ACTTACCA | -0.0286
172 | CCTTGGGA | -0.152
